No constants are given. Whether binding was seen depends on the method and setting. Some entries that bind do so weakly or less than the wild type.
Molecular target: BAG3 (UniProt O95817)
Assay: ITC; sHSP (200 µM) in the syringe titrated into 10 µM BAG3 in the cell; 25 mM Hepes, 5 mM MgCl2, 100 mM KCl, pH 7.5; 25 °C; both purified

Chains of the proteins cited; added tags and fusions are not shown. Lines headed by an entry give the natural chain unless they say otherwise; changes in a name come on top. A line that says so, or that is headed by a name, gives the form on record, which may keep a tag or linker. Residues count along the entry.
UniProt O95817: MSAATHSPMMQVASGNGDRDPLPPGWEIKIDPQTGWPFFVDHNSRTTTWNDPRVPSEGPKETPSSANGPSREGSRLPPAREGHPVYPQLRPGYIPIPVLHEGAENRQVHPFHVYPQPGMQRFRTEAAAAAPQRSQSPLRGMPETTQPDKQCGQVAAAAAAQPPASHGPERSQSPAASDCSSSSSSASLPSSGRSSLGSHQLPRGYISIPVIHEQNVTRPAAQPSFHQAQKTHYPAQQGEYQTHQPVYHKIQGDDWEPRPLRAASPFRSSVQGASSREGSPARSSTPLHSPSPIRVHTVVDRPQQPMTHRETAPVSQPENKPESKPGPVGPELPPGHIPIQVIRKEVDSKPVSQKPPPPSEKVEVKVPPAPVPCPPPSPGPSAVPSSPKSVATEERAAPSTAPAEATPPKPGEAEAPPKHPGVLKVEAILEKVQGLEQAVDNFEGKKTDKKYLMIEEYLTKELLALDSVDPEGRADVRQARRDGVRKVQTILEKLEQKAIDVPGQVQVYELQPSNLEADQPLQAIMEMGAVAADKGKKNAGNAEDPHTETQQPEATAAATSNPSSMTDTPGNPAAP
Hsp27 alpha-crystallin domain (ACD, residues Q80–S176) (P04792, residues 80-176): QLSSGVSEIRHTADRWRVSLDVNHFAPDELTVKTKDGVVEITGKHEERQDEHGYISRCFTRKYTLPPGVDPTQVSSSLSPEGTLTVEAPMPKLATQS
Hsp27 ACD L157A (P04792, form named): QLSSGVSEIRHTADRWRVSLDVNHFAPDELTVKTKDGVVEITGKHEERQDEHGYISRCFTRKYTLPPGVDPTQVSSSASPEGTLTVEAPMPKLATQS

Substance | binding
Hsp27 ACD L157A (from UniProt P04792 80-176) (domain or fragment) | no binding (tested: sHSP (200 µM) titrated into 10 µM BAG3)
Hsp27 alpha-crystallin domain (ACD, residues Q80–S176) (from UniProt P04792 80-176) (domain or fragment) | binds

Source: article PMC6212398, “Competing protein-protein interactions regulate binding of Hsp27 to its client protein tau” (Nature Communications, 2018)
